Test results: publication PMC5612949
Results are given in words; binding and its absence hold for the method and conditions named. For part of these data: Binding seen in cells or lysates may run through a third protein. Some binding calls cover weakened binding; strength is not graded here. For part of these data: Where a sequence is shown, tags or fusion partners need not be part of it.

Chains of the proteins cited; added tags and fusions are not shown.
UniProt Q9UKL0: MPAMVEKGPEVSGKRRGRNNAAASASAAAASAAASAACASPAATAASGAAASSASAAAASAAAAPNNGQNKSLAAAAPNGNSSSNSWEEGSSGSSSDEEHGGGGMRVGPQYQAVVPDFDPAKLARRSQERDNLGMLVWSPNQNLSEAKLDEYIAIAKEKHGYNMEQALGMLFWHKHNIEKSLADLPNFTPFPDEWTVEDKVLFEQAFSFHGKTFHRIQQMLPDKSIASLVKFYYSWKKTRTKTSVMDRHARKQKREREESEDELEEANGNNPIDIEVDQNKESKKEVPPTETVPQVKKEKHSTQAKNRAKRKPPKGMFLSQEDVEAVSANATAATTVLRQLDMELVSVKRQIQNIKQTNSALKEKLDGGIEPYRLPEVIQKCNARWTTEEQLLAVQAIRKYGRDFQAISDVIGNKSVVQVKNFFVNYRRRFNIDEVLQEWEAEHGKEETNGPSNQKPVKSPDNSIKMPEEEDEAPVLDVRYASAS

Legend:
[1] = target: T1, FLAG-tagged ZNF516 (Zinc-finger protein 516) (human) (UniProt Q92618); assay: SEC; anti-FLAG affinity eluate from HEK293T stably expressing FLAG-ZNF516, concentrated and run on Superose 6 in PBS, fractions analysed by silver staining and western blot
T1 sequence: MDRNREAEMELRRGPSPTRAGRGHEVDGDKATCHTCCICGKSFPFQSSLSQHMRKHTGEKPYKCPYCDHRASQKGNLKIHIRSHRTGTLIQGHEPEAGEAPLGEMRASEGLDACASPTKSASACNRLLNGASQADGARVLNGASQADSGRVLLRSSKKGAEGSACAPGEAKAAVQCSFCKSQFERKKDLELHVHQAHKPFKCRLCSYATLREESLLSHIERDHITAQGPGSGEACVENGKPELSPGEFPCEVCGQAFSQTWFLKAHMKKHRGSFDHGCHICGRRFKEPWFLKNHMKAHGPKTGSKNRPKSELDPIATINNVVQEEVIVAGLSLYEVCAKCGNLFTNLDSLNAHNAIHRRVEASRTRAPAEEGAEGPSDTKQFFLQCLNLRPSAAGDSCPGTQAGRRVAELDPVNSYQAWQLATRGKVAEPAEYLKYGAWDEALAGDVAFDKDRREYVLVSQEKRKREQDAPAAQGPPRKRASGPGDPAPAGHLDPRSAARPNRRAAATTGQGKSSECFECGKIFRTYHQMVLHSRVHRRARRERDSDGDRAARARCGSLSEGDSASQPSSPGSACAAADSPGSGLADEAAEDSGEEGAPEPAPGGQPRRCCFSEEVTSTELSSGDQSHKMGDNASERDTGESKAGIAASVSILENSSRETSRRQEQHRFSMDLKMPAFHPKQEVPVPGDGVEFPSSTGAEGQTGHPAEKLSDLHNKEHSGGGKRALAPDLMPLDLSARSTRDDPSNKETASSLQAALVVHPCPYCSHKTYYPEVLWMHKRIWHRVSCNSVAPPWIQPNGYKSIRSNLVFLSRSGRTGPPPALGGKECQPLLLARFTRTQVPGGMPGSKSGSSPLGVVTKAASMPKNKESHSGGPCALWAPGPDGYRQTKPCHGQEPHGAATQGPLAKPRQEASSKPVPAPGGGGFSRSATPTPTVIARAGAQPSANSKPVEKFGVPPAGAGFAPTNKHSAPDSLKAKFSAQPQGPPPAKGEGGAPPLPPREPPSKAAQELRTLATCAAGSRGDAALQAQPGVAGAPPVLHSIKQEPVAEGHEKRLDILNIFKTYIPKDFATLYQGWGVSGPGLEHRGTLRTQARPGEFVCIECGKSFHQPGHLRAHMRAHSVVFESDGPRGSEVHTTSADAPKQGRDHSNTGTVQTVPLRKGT

[2] = target: T2, ZNF516, endogenous (human (endogenous in MCF-7 and MDA-MB-231)) (UniProt Q92618); assay: co-IP; endogenous proteins, whole-cell lysates of MCF-7 or MDA-MB-231, immunoprecipitation with antibodies against ZNF516 or against the complex components (IgG as control), immunoblotting; lysis buffer 50 mM Tris-HCl pH 7.5, 150 mM NaCl, 0.5% NP-40, 2 mM EDTA, 4 °C
T2 sequence: T1 sequence

[3] = target: T1, FLAG-tagged ZNF516 (Zinc-finger protein 516) (human); assay: co-IP; whole-cell lysates of HEK293T transfected with FLAG-ZNF516, immunoprecipitation with anti-FLAG, immunoblotting for endogenous partners; lysis buffer 50 mM Tris-HCl pH 7.5, 150 mM NaCl, 0.5% NP-40, 2 mM EDTA, 4 °C

binding [1] | binding [2] | binding [3] | Substance
binds | binds | binds | CoREST (corepressor of RE1 silencing transcription factor), endogenous (from UniProt Q9UKL0 1-485)
binds | binds | binds | CtBP2 (C-terminal binding protein 2), endogenous (from UniProt P56545 1-445)
